In all, about 340,000 compounds went through this assay and about 12,000 (3.5%) were called active. Inconclusive means that the source gave no clear call. Such entries were picked first, then a sample of the others. Calls follow the shape of the dose curve; as a rule, active = well fitted inhibition curve with a large enough effect; inconclusive = small, poorly fitted or top-dose-only effect, or another doubt; inactive = no such curve, though single readings can be large or run the other way. No potency is given beside an inconclusive call; the fits are too rough.
assay: qHTS Assay for Inhibitors of Hepatitis C Virus (HCV); conditions: Huh7.5.1 HCVcc-Cre (HCVcc is cell-culture hepatitis C virus) infection, luciferase reporter, 44 h; activity change, negative = inhibition: at 41.8 µM (top of the series) unless noted
Outline: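 1,000 cells/well; 4 h culture; + compound; + HCVcc-Cre (~0.5 moi); 44 h; luciferase substrate, RT 15 min; read 15 sec.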
% is scaled to controls: 0 for no effect and ±100 for the full control effect; potency is read from the fitted curve at half-maximal effect; tags tell the direction and shape of the fitted curve.

Compound | Potency | activity change, negative = inhibition
CC(C)CNC(=O)c1c(N)n(Cc2ccco2)c2nc3ccccc3nc12 | inconclusive [inhibitor, single point] | –
N#C/C(=C/c1ccc(N2CCCCC2)o1)C(=O)Nc1ccc2ccccc2c1 | active: 10 µM | –
Cc1ccc(CNC(=O)C(=O)Nc2nccs2)cc1 | – | inactive: 3.69%
O=Cc1cn(CC(=O)Nc2ccccc2)c2ccccc12 | – | inactive: 10.5%
Cc1cc(NC(=O)CSc2nc(C(C)C)nc3ccccc23)no1 | active: 12.6 µM | –
N#CCCN1CCC(NC(=O)OCc2ccccc2)CCC1=O (configuration not stated) | inconclusive [inhibitor, single point] | –
COc1cc(/C=N/NC(=O)Cc2c[nH]c3ccccc23)cc(OC)c1OC | inconclusive [inhibitor, single point] | –
COCCNC(=S)N(CCc1c(C)[nH]c2ccc(C)cc12)Cc1ccco1 | inconclusive [inhibitor, single point] | –
CNC(C)C#Cc1ccc2c(=O)c3ccccc3oc2c1 (configuration not stated) | inconclusive [inhibitor, single point] | –
C=C(C)C(=O)Nc1cccc(C2=NOC3(C2)C[C@@H](C(N)=O)N(C(=O)[C@H]2CCC(=O)N2)C3)c1 (some centres not stated) | inconclusive [inhibitor, single point] | –
O=C(CN1CCN(S(=O)(=O)c2ccc(Br)cc2)CC1)Nc1ccc2c(c1)OCCO2 | inconclusive [inhibitor, single point] | –
COc1ccc(Cl)cc1NC(=O)c1cccc(S(=O)(=O)Nc2c(C)n(C)n(-c3ccccc3)c2=O)c1 | inconclusive [inhibitor, single point] | –
CC(=O)Nc1ccc2c(COC(=O)[C@@H](NS(=O)(=O)c3ccc(C)cc3)C(C)C)cc(=O)oc2c1 | inconclusive [inhibitor, full curve, poor fit] | –
Brc1ccc(-c2nc(N/N=C/c3cccnc3)c3ccccc3n2)cc1 | – | inactive: -12.2%
CCOC(=O)c1cnc(SC)nc1Oc1cccc(NS(=O)(=O)c2ccccc2)c1 | active: 10 µM | –
CSc1ccc(Cl)c(C(=O)OCC(=O)N2CCN(c3ccccc3)CC2)c1 | inconclusive [inhibitor, single point] | –
Cc1ccc(N2CC(C(=O)OCC(=O)c3ccc(F)cc3)CC2=O)cc1 (configuration not stated) | – | inactive: 0.873%
CCS(=O)(=O)N1CCCC(C(=O)NCCCOC)C1 (configuration not stated) | – | inactive: -1.44%
COc1cc(CNc2ccc3[nH]c(=O)[nH]c3c2)ccc1OCc1ccccc1 | inconclusive [inhibitor, single point] | –
Cc1cccc(/C=N/NC(=O)c2cc(Br)ccc2O)n1 | active: 3.98 µM | –
CC(C)(C)c1ccc(S(=O)(=O)Nc2cccc(C3OCCCO3)c2)cc1 | inconclusive [inhibitor, single point] | –
CC(=O)Nc1ccc(S(=O)(=O)NCCSCc2ccc(Cl)cc2Cl)cc1 | inconclusive [inhibitor, partial curve] | –
CCOc1ccc(NC(=O)CN2C(=O)CSC2=O)cc1 | – | inactive: -2.15%
Cc1cccc(OCc2nc(C#N)c(N3CC(C)CC(C)C3)o2)c1 (configuration not stated) | inconclusive [inhibitor, partial curve] | –

Compound | Potency | activity change, negative = inhibition
COc1cccc(C(Nc2ccccn2)c2c(NC(=O)c3ccco3)sc(C)c2C)c1 (configuration not stated) | inconclusive [inhibitor, single point] | –
O=C(NNC(=O)c1ccccc1O)c1cc2ccccc2o1 | – | inactive: 9.76%
CN1CCN(C(CNS(=O)(=O)c2ccc([N+](=O)[O-])cc2)c2ccc(F)cc2)CC1 (configuration not stated) | inconclusive [inhibitor, full curve] | –
O=C1CCc2cc(S(=O)(=O)NCCC(=O)N3CCN(c4cccc(Cl)c4)CC3)ccc2N1 | inconclusive [inhibitor, single point] | –
COc1ccc(/C=C(\C#N)C(=O)Nc2cccc(C)n2)cc1 | – | inactive: 4.17%
CN(N)c1nc(N2CCCC2)nc(N2CCCC2)n1 | inconclusive [inhibitor, full curve, poor fit] | –
CCc1ccc(C2NC(c3ccc(CC)cc3)C([N+](=O)[O-])C(C)(C)C2[N+](=O)[O-])cc1 (configuration not stated) | – | inactive: 25.1%
COc1ccc(O)c(-c2cc(-c3ccc(F)cc3)n[nH]2)c1 | inconclusive [inhibitor, single point] | –
CCCOc1ccc(NC(=O)CC2C(=O)N(CC)C(=S)N2CCCN2CCN(Cc3ccccc3)CC2)cc1 (configuration not stated) | inconclusive [inhibitor, single point] | –
CCOC(=O)c1nnn(-c2nonc2N)c1CNc1ccc(C)c(Br)c1 | inconclusive [inhibitor, full curve] | –
CCN(CC)S(=O)(=O)c1cccc(-c2nnc(SCCOc3ccc(Cl)cc3)o2)c1 | inconclusive [inhibitor, partial curve] | –
Cc1cccc(NC(=S)N2CCN(S(C)(=O)=O)CC2)c1 | – | inactive: 2.02%
COc1ccc(CCN2C(=S)NC3CC2(C)Oc2ccc([N+](=O)[O-])cc23)cc1OC (configuration not stated) | active: 4.47 µM | –
Cc1ccc(C2C(C#N)=C(N)N(N(C)C)C3=C2C(=O)CCC3)cc1 (configuration not stated) | – | inactive: 6.21%
COc1ccc(Cc2nc(-c3ccc(-n4cccc4)cc3)no2)cc1 | – | inactive: -10.6%
CC(=O)c1ccc(OCc2cc(C(=O)N(C)C(C)c3nccs3)no2)cc1 (configuration not stated) | – | inactive: -27.6%
O=C(/C=C/c1cccs1)Nc1cccc(NC(=O)/C=C/c2cccs2)n1 | inconclusive [inhibitor, partial curve] | –
Cc1nc(SCC(=O)Nc2ccc3c(c2)OCO3)c(C#N)c2c1CCCC2 | inconclusive [inhibitor, full curve] | –
O=C(Nc1nc(-c2cc(F)ccc2F)cs1)c1ccccn1 | inconclusive [inhibitor, partial curve] | –
COc1ccccc1/C=C/CN1CCCC(CO)(Cc2cccc(Cl)c2)C1 (configuration not stated) | inconclusive [inhibitor, single point] | –
CNc1nc(-c2ccc3c(c2)CCN3C(=O)c2ccccc2F)c(C)s1 | inconclusive [inhibitor, partial curve] | –
O=C1CN(C(=O)c2cc3ccccc3o2)c2ccccc2N1 | – | inactive: 6.51%
C=CCOC(=O)Nc1ccc(Cl)cc1NC(=O)OCC=C | inconclusive [inhibitor, single point] | –
CCc1cccc(CC)c1NC(=S)NCCc1c(C)[nH]c2ccccc12 | inconclusive [inhibitor, partial curve, poor fit] | –

Compound | Potency | activity change, negative = inhibition
CN(c1ccc(C(=O)NCCSCc2c(F)cccc2Cl)cc1)S(C)(=O)=O | inconclusive [inhibitor, single point] | –
CN1/C(=C\C(=O)Nc2ccc(F)cc2)C(C)(C)c2ccccc21 | – | inactive: -8.86%
COc1ccc(NC(=O)CCCn2c(=O)oc3ccccc32)cc1Cl | – | inactive: -6.04%
Cn1c2ccccc2c2cc(C(=O)NNC(=O)CCl)sc21 | inconclusive [inhibitor, partial curve] | –
Cc1ccc(/C=C/C(=O)NCC2COc3ccccc3O2)o1 (configuration not stated) | – | inactive: -12.1%
O=C(Nc1ccc(Nc2ccccc2)cc1)c1c(Cl)cccc1Cl | active: 10 µM | –
C/C(=N\NC(=O)c1nnn(-c2nonc2N)c1CN1CCCCC1)c1ccccc1O | – | inactive: -6.48%
CCOc1cc(NC(=O)c2ccco2)c(OCC)cc1NC(=O)Cc1cccc(OC)c1 | active: 12.6 µM | –
CCOC(=O)Cc1nnc(NC(=O)CCc2ccccc2)s1 | – | inactive: 11.7%
O=C(NCCN1CCN(c2ccccc2F)CC1)c1ccc2nc3ccccc3c(=O)n2c1 | inconclusive [inhibitor, single point] | –
COc1cccc(OCC(O)CN2CCN(C(c3ccccc3)c3ccccc3)CC2)c1 (configuration not stated) | inconclusive [inhibitor, full curve] | –
Cc1cc(N2CCCC2)nc2ccc(NC(=S)NC(C)C)cc12 | inconclusive [inhibitor, full curve] | –
C=CCOC(=O)C1=C(C)NC(SCC(=O)N(CC)CC)=C(C#N)C1c1ccccc1 (configuration not stated) | inconclusive [inhibitor, partial curve, poor fit] | –
COC(=O)NC1CSCC1OC(=O)CCN1C(=O)c2ccccc2C1=O (configuration not stated) | inconclusive [inhibitor, single point] | –
CCN1CCN(C(=O)Nc2ccc(Cc3ccc(NC(=O)N4CCN(CC)CC4)cc3)cc2)CC1 | inconclusive [inhibitor, full curve] | –
Cc1cc(C(=O)CN2CCCC2)c(C)n1-c1ccc(Cl)cc1 | inconclusive [inhibitor, single point] | –
O=C1CCN(Cc2ccccc2)C=C1c1ccc(C(F)(F)F)cc1 | inconclusive [inhibitor, single point] | –
COc1ccc(NC(=O)c2cc(-c3ccccc3)on2)cc1 | – | inactive: 3.57%
CCOCCCNC(=S)Nc1ccc2nc(N3CCCC3)cc(C)c2c1 | inconclusive [inhibitor, partial curve] | –
Cc1ccc(C(=O)NCc2ccco2)cc1S(=O)(=O)Nc1cccc(C)c1C | inconclusive [inhibitor, partial curve, poor fit] | –
COc1ccc(Cl)cc1-n1c(C)cc(C=O)c1C | – | inactive: -16.4%
O=C(NCc1ccco1)c1ccc(-c2ccccc2Cl)o1 | – | inactive: 13.8%
N#Cc1c(N)nc(SCc2ccccn2)c(C#N)c1-c1cccs1 | inconclusive [inhibitor, partial curve] | –
CN(C=[N+](C)C)c1cccc2c1C(=O)c1ccccc1C2=O | inconclusive [inhibitor, single point] | –

From PubChem BioAssay AID651820 (National Center for Advancing Translational Sciences (NCATS), 2012)
